Measured values taken from PubChem BioAssay AID504332 (National Center for Advancing Translational Sciences (NCATS), 2011).
Hit rate of the full screen: of about 350,000 compounds, about 31,000 (8.9%) were called active. The inconclusive results got no clear call from the source; some entries with a clear call stand among them for comparison. Calls follow the shape of the dose curve; as a rule, active = well fitted inhibition curve with a large enough effect; inconclusive = small, poorly fitted or top-dose-only effect; inactive = no such curve, though single readings can be large or run the other way. A potency beside an inconclusive call is a rough fit, not a confirmed value.

These compounds were tested against Histone-lysine N-methyltransferase EHMT2 (Homo sapiens) (UniProt Q96KQ7) (assay: qHTS Assay for Inhibitors of Histone Lysine Methyltransferase G9a). Conditions: G9a H3K9 monomethylation, AlphaScreen, 2 h; activity, negative = inhibition: at 59 µM (top of the series) unless noted.
Procedure, shortened: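 G9a (20 nM) preincubated 15 min RT with compounds, then 500 nM biotinylated H3K9 peptide and 20 uM SAM added; 2 h RT reaction. Monomethyl-H3K9 product detected by AlphaScreen with anti-H3K9me1 antibody, streptavidin donor and anti-rabbit IgG acceptor beads.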
% is scaled to controls: 0 for no effect and ±100 for the full control effect; potency is read from the fitted curve at half-maximal effect; tags tell the direction and shape of the fitted curve.
Also: nearly all actives have a fitted effect of over 75% in size.

Sequence of UniProt Q96KQ7 (Q96KQ7 whole entry, looked up): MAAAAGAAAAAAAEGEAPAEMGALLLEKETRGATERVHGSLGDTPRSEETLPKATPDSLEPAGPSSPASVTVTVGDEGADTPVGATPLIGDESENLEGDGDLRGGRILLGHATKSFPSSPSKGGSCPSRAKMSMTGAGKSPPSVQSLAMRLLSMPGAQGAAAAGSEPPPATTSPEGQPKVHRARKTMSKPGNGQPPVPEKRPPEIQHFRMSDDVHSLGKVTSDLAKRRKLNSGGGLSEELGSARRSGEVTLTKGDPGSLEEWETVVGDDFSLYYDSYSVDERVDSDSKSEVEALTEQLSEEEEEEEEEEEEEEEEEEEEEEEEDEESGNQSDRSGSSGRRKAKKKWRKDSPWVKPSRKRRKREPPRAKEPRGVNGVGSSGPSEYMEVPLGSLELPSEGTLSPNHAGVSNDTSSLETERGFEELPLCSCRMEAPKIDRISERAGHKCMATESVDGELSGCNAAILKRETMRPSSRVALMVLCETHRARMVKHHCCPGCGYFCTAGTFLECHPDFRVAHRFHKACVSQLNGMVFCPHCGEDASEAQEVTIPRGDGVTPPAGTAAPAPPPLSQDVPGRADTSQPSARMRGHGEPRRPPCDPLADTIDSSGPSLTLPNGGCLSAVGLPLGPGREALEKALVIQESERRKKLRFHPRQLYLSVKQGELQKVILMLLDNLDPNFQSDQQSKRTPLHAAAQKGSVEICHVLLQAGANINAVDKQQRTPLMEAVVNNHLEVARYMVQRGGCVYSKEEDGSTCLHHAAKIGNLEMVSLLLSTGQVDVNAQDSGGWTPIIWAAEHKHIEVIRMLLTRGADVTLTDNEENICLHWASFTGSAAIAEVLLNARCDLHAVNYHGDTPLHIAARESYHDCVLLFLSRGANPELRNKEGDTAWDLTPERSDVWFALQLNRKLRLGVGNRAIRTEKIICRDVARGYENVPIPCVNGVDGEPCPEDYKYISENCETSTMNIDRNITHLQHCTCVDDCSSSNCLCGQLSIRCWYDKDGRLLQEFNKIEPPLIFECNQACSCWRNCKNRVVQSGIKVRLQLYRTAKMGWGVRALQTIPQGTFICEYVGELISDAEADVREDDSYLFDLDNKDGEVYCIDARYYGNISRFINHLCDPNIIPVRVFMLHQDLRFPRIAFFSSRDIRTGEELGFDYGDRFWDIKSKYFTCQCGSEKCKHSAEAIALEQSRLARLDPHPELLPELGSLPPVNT

SMILES | Potency | activity, negative = inhibition
O=C(NCCN1CCOCC1)C1CC(=O)N(c2ccc(F)c(Cl)c2)C1 (stereo not given) | inconclusive: 10 µM [inhibitor, partial curve] | –
CC(=O)Nc1ccc(S(=O)(=O)NC(C)C(=O)OCCOc2ccc(F)cc2)cc1 (stereo not given) | inconclusive: 6.31 µM [inhibitor, single point] | –
CCOC(=O)C1=C(C)N=c2s/c(=C/c3ccc(OCC(=O)O)cc3)c(=O)n2C1c1ccc(OC)cc1OC (stereo not given) | active: 50.1 µM | –
Cc1ccccc1NS(=O)(=O)c1cccc2nonc12 | inconclusive: 79.4 µM [inhibitor, single point] | –
CCOc1cc(C2C(C(=O)N3CCCCC3)=C(C)NC3=C2C(=O)CCC3)cc(Br)c1O (stereo not given) | inconclusive: 3.16 µM [inhibitor, single point] | –
CC(=O)NC1C(Oc2ccccc2C)OC(CO)C(O)C1O (stereo not given) | inconclusive: 7.08 µM [inhibitor, single point] | –
COc1ccc(OC)c(NC(=O)NNC(=O)CCCOc2ccc(Cl)cc2C)c1 | inconclusive: 28.2 µM [inhibitor, full curve] | –
CN1CCN(c2ccc(Cl)cc2NC(=O)CN2C(=O)NC(C)(c3ccccc3)C2=O)CC1 (stereo not given) | active: 44.7 µM | –
O=C(Cc1ccc(NC(=O)N2CCSc3ncccc32)cc1)NCc1cccc(Cl)c1 | inconclusive: 4.47 µM [inhibitor, partial curve, poor fit] | –
COc1ccc2c(c1)c(=O)oc1cc(OCC(=O)N3CCc4ccccc4C3)ccc12 | active: 3.16 µM | –
S=C(Nc1ccc(-c2nc3ccccc3[nH]2)cc1)Nc1cccnc1 | active: 44.7 µM | –
COc1cc(C(=O)COC(=O)c2cc([N+](=O)[O-])ccc2N2CCOCC2)ccc1OC(F)F | active: 31.6 µM | –
O=C(Cc1nc2ccccc2s1)c1ccc(O)cc1O | inconclusive: 3.55 µM [inhibitor, partial curve, poor fit] | –
COc1ccccc1C(=O)COC(=O)c1cc(=O)[nH]c2ccccc12 | inconclusive: 50.1 µM [inhibitor, partial curve, poor fit] | –
CC(C)(C)c1ccc(NC(=O)N2CCCN(c3ccc([N+](=O)[O-])cn3)CC2)cc1 | inconclusive: 22.4 µM [inhibitor, partial curve, poor fit] | –
COc1cccc(NC(=O)Cn2c(=O)n(Cc3ccc(C(=O)NCc4ccc(C)cc4)cc3)c(=O)c3ccccc32)c1 | – | inactive: 4.3%
Cc1cc(Br)ccc1NC(=O)CNC(=O)COc1ccccc1C | – | inactive: 9.83% [at 2.33 µM]
CCCc1nc2ccccc2c(=O)n1/N=C/c1ccc(O)c(O)c1 | inconclusive: 10 µM [inhibitor, partial curve, poor fit] | –
Cc1ccc(S(=O)(=O)N(C)c2ccc(C(=O)NCc3ccccc3F)cc2)cc1 | active: 50.1 µM | –
Nc1nc2ccc(C(=O)NCCOC(=O)C3CCCCC3)cc2s1 | inconclusive: 70.8 µM [inhibitor, partial curve] | –
Cc1ccc2[nH]c(=O)c(CN(CCc3ccccc3)C(c3nnnn3Cc3ccco3)C(C)C)cc2c1 (stereo not given) | inconclusive: 50.1 µM [inhibitor, partial curve] | –
O=C(CN1C(=O)C2(SCC(=O)N2c2ccc(F)c(F)c2)c2ccccc21)Nc1cccc(Cl)c1 (stereo not given) | inconclusive: 28.2 µM [inhibitor, partial curve, poor fit] | –
O=C(Cc1ccccc1)c1ccc2c(c1)OCCO2 | – | inactive: 82.5% [at 102 µM]
COc1cccc(OC)c1C(=O)NC(=S)NNC(=O)[C@H]1C[C@@H]1c1ccccc1 | inconclusive: 44.7 µM [inhibitor, partial curve, poor fit] | –

SMILES | Potency | activity, negative = inhibition
CN(C)CCN(C(=O)c1ccc2ccccc2c1)c1nc2c(F)cccc2s1 | active: 39.8 µM | –
Cc1ccc(C)c(S(=O)(=O)Nc2ccc3oc(C)c(C(=O)O)c3c2)c1 | active: 39.8 µM | –
Cc1ccc(S(=O)(=O)N2CCN(C(=O)c3sccc3C)CC2)cc1 | inconclusive: 79.4 µM [inhibitor, single point] | –
O=C(Nc1nnc(CCN2CCCCC2)s1)c1ccccc1Cl | – | inactive: -1.49% [at 102 µM]
COc1cccc(NC(=O)c2ccc(-n3cnnn3)cc2)c1 | – | inactive: 23.7% [at 102 µM]
COc1cccc(C2NC(CC(C)C)(C(=O)O)C3C(=O)N(Cc4ccccc4)C(=O)C23)c1O (stereo not given) | – | inactive: -3.33%
Cc1nn(Cc2cccc(C(N)=O)c2)c(C)c1Br | – | inactive: 6.68% [at 102 µM]
Cc1ccc(NC(=O)CC(=O)c2ccccc2)cc1C | – | inactive: 20.5% [at 102 µM]
CCOC(=O)C1=C(COC(=O)COc2ccc(OCC)cc2)NC(=O)NC1C (stereo not given) | inconclusive: 89.1 µM [inhibitor, single point] | –
CCn1c(=O)c(=O)[nH]c2cc(C(=O)NC(C)c3ccc(S(N)(=O)=O)cc3)ccc21 (stereo not given) | inconclusive: 89.1 µM [inhibitor, partial curve, poor fit] | –
Cc1onc(-c2ccccc2)c1C(=O)Nc1sc2c(c1C#N)CCC2 | – | inconclusive: -85.5% [inhibitor]
COc1cc(C2C(C(=O)c3ccc(C)o3)=C(O)C(=O)N2c2cc(C)on2)ccc1O (stereo not given) | active: 44.7 µM | –
COc1ccccc1-c1nnc(SCC(=O)c2ccc(C3CCCCC3)cc2)n1Cc1ccco1 | inconclusive: 6.31 µM [inhibitor, single point] | –
O=S(=O)(Nc1nc2ccccc2nc1NCC1CCCO1)c1cc(Cl)ccc1Cl (stereo not given) | inconclusive: 15.8 µM [inhibitor, partial curve, poor fit] | –
COc1ccccc1N1CCN(/N=C/c2cc(Br)ccc2F)CC1 | inconclusive: 79.4 µM [inhibitor, partial curve, poor fit] | –
OCCN1CCN(c2ncnc3c2sc2nc(N4CCOCC4)c4c(c23)CCC4)CC1 | inconclusive: 50.1 µM [inhibitor, partial curve] | –
Cc1ccc(S(=O)(=O)NNC(=O)NC23CC4CC(CC(C4)C2)C3)cc1 | inconclusive: 1.78 µM [inhibitor, full curve] | –
CC(=O)c1ccc(NC(=O)C(C)OC(=O)C2CCN(c3ccc(C(F)(F)F)cn3)CC2)cc1 (stereo not given) | inconclusive: 56.2 µM [inhibitor, partial curve, poor fit] | –
CC(=O)c1ccc(N(CC(=O)NCC2CCCO2)C(=O)CCC(=O)Nc2cc(C)on2)cc1 (stereo not given) | – | inactive: 16.7% [at 102 µM]
O=C(/C=C/c1ccco1)N(Cc1ccccc1)C1CCS(=O)(=O)C1 (stereo not given) | active: 35.5 µM | –
O=C1CCN(Cc2ccccc2)CCN1[C@H](COc1ccccc1)c1ccccc1 | inconclusive: 79.4 µM [inhibitor, single point] | –
c1ccc(OCc2nn3c(C4CCCCC4)nnc3s2)cc1 | inconclusive: 11.2 µM [inhibitor, partial curve, poor fit] | –
Cc1onc(-c2ccccc2)c1C(=O)N1CCN(C)CC1 | – | inactive: -25.8% [at 102 µM]
O=C(C1=COCCO1)N1CCN(C(c2ccccc2)c2ccccc2)CC1 | inconclusive: 1 µM [inhibitor, full curve, poor fit] | –

SMILES | Potency | activity, negative = inhibition
COc1cccc(C2/C(=C(/O)c3cnn(-c4ccccc4)c3C)C(=O)C(=O)N2CCN(C)C)c1OC (stereo not given) | active: 14.1 µM | –
CCN(CC)CCNC1=NCCn2c1cc1cc(OC)ccc12 | inconclusive: 89.1 µM [inhibitor, single point] | –
CCC(=O)NCCSc1c[nH]c2ccccc12 | – | inconclusive: -97.8% [inhibitor]
CN(C)c1ccc(N=c2sc3ccccc3n2C)cc1 | inconclusive: 1.78 µM [inhibitor, full curve, poor fit] | –
Cc1cc(C)c2ccc(=O)n(CC(=O)N/N=C/c3ccccc3Cl)c2n1 | – | inactive: 0.309% [at 102 µM]
Cc1cccc(NC(=O)C2CCN(S(=O)(=O)c3c(C)noc3/C=C/c3ccco3)CC2)c1 | – | inactive: -51.3%
COC(=O)CCn1nnc(-c2ccc(C(C)C)cc2)n1 | – | inconclusive: -65.1% [inhibitor] [at 12.7 µM]
Cc1ccc(C2=[N+]([O-])C3(CCCCC/C3=N\NC(N)=O)N(O)C2(C)C)o1 (stereo not given) | inconclusive: 89.1 µM [inhibitor, single point] | –
COc1ccc(N2CCC(CNC(=S)Nc3c(C)cccc3C)C2)cc1 (stereo not given) | inconclusive: 0.562 µM [inhibitor, partial curve, poor fit] | –
c1ccc(-c2nc(-c3ccco3)cs2)nc1 | inconclusive: 39.8 µM [inhibitor, single point] | –
N#Cc1c(/N=C/c2cccs2)sc2c1CCCCC2 | active: 14.1 µM | –
CCCCC/C=C\C[C@@H](O)/C=C/C=C\C/C=C\CCCC(=O)O | inconclusive: 3.55 µM [inhibitor, full curve] | –
CCOC(=O)N1CCc2c(sc(N)c2C#N)C1 | active: 20 µM | –
COC(=O)c1sc2cccc(F)c2c1S(=O)(=O)N1CCN(c2cccc(C)c2)C(C)C1 (stereo not given) | – | inactive: -37.8%
Cc1ccc2nc(SC(C)C(=O)NCc3ccco3)[nH]c2c1 (stereo not given) | active: 39.8 µM | –
CCCC1CCC(=NNC(=S)NCCc2ccccc2)CC1 (stereo not given) | active: 14.1 µM | –
CCc1ccccc1-n1c(N)c(C(=O)OC)c2nc3ccccc3nc21 | – | inactive: -1.55%
COc1cccc(/C=C2\SC(=S)N(c3cccnc3)C2=O)c1OC | inconclusive: 89.1 µM [inhibitor, partial curve, poor fit] | –
CC(Sc1nc(C2CC2)n(-c2ccccc2)n1)C(=O)c1c(N)n(C)c(=O)n(C)c1=O (stereo not given) | – | inactive: 24.1% [at 102 µM]
CCc1cccc(NC(=O)CN(C)S(=O)(=O)c2ccc3[nH]c4c(c3c2)CCCC4)c1 | inconclusive: 8.91 µM [inhibitor, partial curve] | –
Cc1ccc(/C=c2\sc3nc(-c4cccs4)nn3c2=O)o1 | active: 17.8 µM | –
Cc1cc(C)nc(SCc2nnc(SCC(=O)Nc3nc(-c4ccccc4)cs3)n2-c2ccccc2)n1 | inconclusive: 17.8 µM [inhibitor, single point] | –
